# Assay results reported in PubChem BioAssay (NCATS).
# Inconclusive means that the source gave no clear call. Such entries were picked first, then a sample of the others. For some assays here: No potency is given beside an inconclusive call; the fits are too rough. Active and inactive are the calls of the source. Calls come from the whole dose curve; as a rule, active = well fitted curve in the direction sought with a large enough effect; inconclusive = small, poorly fitted or top-dose-only effect, or another doubt; inactive = no such curve, though single readings can be large; an effect the other way counts as inactive or inconclusive.
# Tests used:
# [1] = target: Furin (Homo sapiens) (UniProt P09958); assay: Furin counterscreen qHTS for Zika virus inhibitors (AID 1347149); settings: furin enzymatic counterscreen, fluorogenic substrate; series mostly up to 57.5 µM; note: nearly all actives have a fitted effect of over 70% in size
# Outline: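 Counterscreen measures cleavage of 2 microM BOC-RVRR-AMC, below its ~15 microM Km, by 5 nM full-length human furin at pH 7.0 after a 15-min compound preincubation. Inhibition derives from the 15-min fluorescence increase at 37C.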
# [2] = system: Zika virus NS2B-NS3 protease (unlinked complex); assay: Confirmatory screen GU AMC qHTS for Zika virus inhibitors (AID 1347153); settings: Recombinant NS2B-NS3 protease, AMC substrate fluorescence; series mostly up to 57.1 µM;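 note: enzyme at 25 nM with substrate at 10 µM below its Km of 18.3 µM; nearly all actives have a fitted effect of over 70% in size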
# Outline: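 Unlinked NS2B-NS3 complex (25 nM) in 10 mM Tris-HCl pH 8.0, 0.01% Tween 20 preincubated 15 min with compound, then 10 microM Bz-Nle-KRR-AMC (Km 18.3 µM). Fluorescence change over 15 min, normalized, Hill-fitted.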
# [3] = ZIKV-mCherry secondary qHTS for Zika virus inhibitors (AID 1347158); settings: Vero cells, ZIKV-mCherry infection imaging, 48-72 h; series mostly up to 49.2 µM
# Outline: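 This orthogonal imaging screen measured ZIKV-mCherry infection of Vero cells exposed to compound, MOI 1, 48-72 h. Percent infection came from segmented nuclei scored mCherry-positive above 3 SD of negative controls.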
# [4] = system: Zika virus NS2B-NS3 protease (linked construct); assay: 384 well plate NINDS Rhodamine confirmatory qHTS for Zika virus inhibitors (AID 1347164); settings: rhodamine-110 peptide substrate fluorescence; series mostly up to 100 µM;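 note: fluorescence from protease cleavage of Ac-LKRR-rhodamine 110 substrate; nearly all actives have a fitted effect of over 65% in size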
# Outline: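 Linked protease at a final 5 nM, 30 nM or 60 nM was preincubated ~15 min with compounds, then given 10 microM Ac-LKRR-Rhodamine 110. Fluorescence (ex 485/em 538 nm) after 25 min in the dark at room temperature.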
# [5] = Vero cells viability qHTS for Zika virus inhibitors (AID 1347167); settings: cytotoxicity counter-screen (Zika); series mostly up to 45.9 µM
# Outline: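 To flag cytotoxic protease inhibitors, viability is measured by ATP-dependent luminescence (CellTiter Glo) after cells attached overnight receive compound for 24 to 48 hours in DMEM with 4% FBS.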
# Potency is the fitted concentration of half-maximal effect; tags give direction and shape of the fitted curve.
# Chain of UniProt P09958 (P09958 whole entry, looked up): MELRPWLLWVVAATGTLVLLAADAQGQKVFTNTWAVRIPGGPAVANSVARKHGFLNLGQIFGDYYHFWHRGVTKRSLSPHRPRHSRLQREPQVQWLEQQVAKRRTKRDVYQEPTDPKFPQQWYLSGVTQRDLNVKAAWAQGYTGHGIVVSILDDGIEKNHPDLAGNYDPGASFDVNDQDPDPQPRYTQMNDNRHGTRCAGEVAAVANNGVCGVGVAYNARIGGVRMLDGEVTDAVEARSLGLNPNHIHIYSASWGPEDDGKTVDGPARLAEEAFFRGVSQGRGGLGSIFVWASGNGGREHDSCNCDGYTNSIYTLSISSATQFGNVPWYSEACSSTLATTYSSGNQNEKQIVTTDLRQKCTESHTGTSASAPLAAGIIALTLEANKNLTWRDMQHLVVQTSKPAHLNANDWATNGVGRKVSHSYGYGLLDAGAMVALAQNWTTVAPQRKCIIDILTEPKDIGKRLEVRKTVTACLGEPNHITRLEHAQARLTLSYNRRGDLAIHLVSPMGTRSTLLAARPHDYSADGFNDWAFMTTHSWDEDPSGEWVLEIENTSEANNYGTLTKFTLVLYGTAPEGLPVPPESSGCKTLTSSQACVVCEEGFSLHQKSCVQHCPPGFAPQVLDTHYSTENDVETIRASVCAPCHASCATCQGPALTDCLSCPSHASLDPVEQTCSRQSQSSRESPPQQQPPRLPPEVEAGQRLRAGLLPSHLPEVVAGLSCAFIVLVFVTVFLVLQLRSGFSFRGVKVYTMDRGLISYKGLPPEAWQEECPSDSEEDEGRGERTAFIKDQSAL
smiles,measurement,setting,value
O=C(NCc1ccc(Oc2ccccc2)cc1)c1nc(-c2cc(Br)c(O)c(Br)c2)no1,Potency,[1],"inconclusive [inhibitor, full curve, poor fit]"
same,Potency,[2],"inconclusive [inhibitor, full curve]"
same,Potency,[3],active: 7.08 µM
same,Potency,[4],active: 1.58 µM
same,Potency,[5],"inconclusive [cytotoxic, single point]"
